# Source: the supplement of paper PMC8728848
# This is one part of the list.
# B1: Langerin (Homo sapiens), Q9UJ71 (protein)
# chain: STLNAQIPELKSDLEKASALNTKIRALQGSLENMSKLLKRQNDILQVVSQGWKYFKGNFYYFSLIPKTWYSAEQFCVSRNSHLTSVTSESEQEFLYKTAGGLIYWIGLTKAGMEGDWSWVDDTPFNKVQSARFWIPGEPNDAGNNEHCGNIKAPSLQAWNDAPCDITFLFICKRPYVPSEP
# Experiments:
# Test in all cases: glycan array binding signal (z-score within array); higher = stronger binding
# Conditions in all cases: glycan notation: IUPAC condensed, linker removed; mutation: N288D, K313I
# Gal6S(b1-4)Glc = biological target: Gal6S(b1-4)Glc
# How it was run: (§1)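 The Consortium for Functional Glycomics database supplied 3228 glycan arrays, of which those lacking an available protein sequence were dropped. The binding signal, a within-array Z-score, was averaged across arrays of the same protein sequence and across linkers. Negative scores can be read as non-binding.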
# Gal6S(b1-4)Glc6S = biological target: Gal6S(b1-4)Glc6S
# How it was run: as §1
# Gal6S(b1-4)GlcNAc = biological target: Gal6S(b1-4)GlcNAc
# How it was run: as §1
# Gal6S(b1-4)GlcNAc6S = biological target: Gal6S(b1-4)GlcNAc6S
# How it was run: as §1
# GalNAc(a1-3)Gal = biological target: GalNAc(a1-3)Gal
# How it was run: as §1
# GalNAc(a1-3)GalNAc = biological target: GalNAc(a1-3)GalNAc
# How it was run: as §1
# [1] = biological target: GalNAc(a1-3)GalNAc(b1-3)Gal(a1-4)Gal(b1-4)Glc
# How it was run: as §1
# [2] = biological target: GalNAc(a1-3)GalNAc(b1-3)Gal(a1-4)Gal(b1-4)GlcNAc
# How it was run: as §1
# GalNAc(b1-3)Gal = biological target: GalNAc(b1-3)Gal
# How it was run: as §1
# [3] = biological target: GalNAc(b1-3)Gal(a1-4)Gal(b1-4)GlcNAc
# How it was run: as §1
# [4] = biological target: GalNAc(b1-3)Gal(a1-4)Gal(b1-4)GlcNAc(b1-3)Gal(b1-4)Glc
# How it was run: as §1
# [5] = biological target: GalNAc(b1-3)Gal(a1-6)Gal(b1-4)Glc
# How it was run: as §1
# GalNAc(b1-3)GalNAc = biological target: GalNAc(b1-3)GalNAc
# How it was run: as §1
# GalNAc(b1-3)GlcNAc = biological target: GalNAc(b1-3)GlcNAc
# How it was run: as §1
# GalNAc(b1-4)Gal(b1-4)Glc = biological target: GalNAc(b1-4)Gal(b1-4)Glc
# How it was run: as §1
# GalNAc(b1-4)GlcNAc = biological target: GalNAc(b1-4)GlcNAc
# How it was run: as §1
# [6] = biological target: GalNAc(b1-4)GlcNAc(b1-2)Man
# How it was run: as §1
# [7] = biological target: GalNAc(b1-4)GlcNAc(b1-2)Man(a1-3)[GalNAc(b1-4)GlcNAc(b1-2)Man(a1-6)]Man(b1-4)GlcNAc(b1-4)GlcNAc
# How it was run: as §1
# [8] = biological target: GalNAc(b1-4)GlcNAc(b1-3)GalNAc(b1-4)GlcNAc
# How it was run: as §1
# GalNAc(b1-4)GlcNAc6S = biological target: GalNAc(b1-4)GlcNAc6S
# How it was run: as §1
# GalNAc(b1-6)GalNAc = biological target: GalNAc(b1-6)GalNAc
# How it was run: as §1
# GalNAc3S(b1-4)GlcNAc = biological target: GalNAc3S(b1-4)GlcNAc
# How it was run: as §1
# GalNAc3S(b1-4)GlcNAc3S = biological target: GalNAc3S(b1-4)GlcNAc3S
# How it was run: as §1
# [9] = biological target: GalNAc3S(b1-4)[Fuc(a1-3)]GlcNAc
# How it was run: as §1
# GalNAc4S6S(b1-4)GlcNAc = biological target: GalNAc4S6S(b1-4)GlcNAc
# How it was run: as §1
# GalNAc6S(b1-4)GlcNAc = biological target: GalNAc6S(b1-4)GlcNAc
# How it was run: as §1
# Glc(a1-4)Glc = biological target: Glc(a1-4)Glc
# How it was run: as §1
# [10] = biological target: Glc(a1-4)Glc(a1-4)Glc(a1-4)Glc
# How it was run: as §1
# Glc(a1-6)Glc(a1-6)Glc = biological target: Glc(a1-6)Glc(a1-6)Glc
# How it was run: as §1
# [11] = biological target: Glc(a1-6)Glc(a1-6)Glc(a1-6)Glc
# How it was run: as §1
# Glc(b1-4)Glc = biological target: Glc(b1-4)Glc
# How it was run: as §1
# Glc(b1-6)Glc = biological target: Glc(b1-6)Glc
# How it was run: as §1
# GlcA(b1-3)Gal = biological target: GlcA(b1-3)Gal
# How it was run: as §1
# GlcA(b1-3)GlcNAc = biological target: GlcA(b1-3)GlcNAc
# How it was run: as §1
# GlcA(b1-6)Gal = biological target: GlcA(b1-6)Gal
# How it was run: as §1
# [12] = biological target: GlcA3S(b1-3)Gal(b1-4)GlcNAc(b1-2)Man
# How it was run: as §1
# [13] = biological target: GlcA3S(b1-3)Gal(b1-4)GlcNAc(b1-3)Gal(b1-4)Glc
# How it was run: as §1
# [14] = biological target: GlcNAc(a1-3)Gal(b1-4)GlcNAc
# How it was run: as §1
# [15] = biological target: GlcNAc(a1-4)Gal(b1-3)GlcNAc
# How it was run: as §1
# [16] = biological target: GlcNAc(a1-4)Gal(b1-4)GalNAc
# How it was run: as §1
# [17] = biological target: GlcNAc(a1-4)Gal(b1-4)GlcNAc
# How it was run: as §1
# [18] = biological target: GlcNAc(a1-4)Gal(b1-4)GlcNAc(b1-3)Gal(b1-4)Glc
# How it was run: as §1
# [19] = biological target: GlcNAc(a1-4)Gal(b1-4)GlcNAc(b1-3)Gal(b1-4)GlcNAc
# How it was run: as §1
# [20] = biological target: GlcNAc(a1-4)Gal(b1-4)GlcNAc(b1-3)Gal(b1-4)GlcNAc(b1-3)Gal(b1-4)GlcNAc
# How it was run: as §1
# [21] = biological target: GlcNAc(a1-4)Gal(b1-4)GlcNAc(b1-3)Gal(b1-4)[Fuc(a1-3)]GlcNAc(b1-3)Gal(b1-4)[Fuc(a1-3)]GlcNAc
# How it was run: as §1
binder,measurement,setting,value
B1,glycan array binding signal (z-score),Gal6S(b1-4)Glc,-0.087
same,glycan array binding signal (z-score),Gal6S(b1-4)Glc6S,0.105
same,glycan array binding signal (z-score),Gal6S(b1-4)GlcNAc,-0.182
same,glycan array binding signal (z-score),Gal6S(b1-4)GlcNAc6S,-0.328
same,glycan array binding signal (z-score),GalNAc(a1-3)Gal,-0.2
same,glycan array binding signal (z-score),GalNAc(a1-3)GalNAc,-0.182
same,glycan array binding signal (z-score),[1],-0.166
same,glycan array binding signal (z-score),[2],-0.3
same,glycan array binding signal (z-score),GalNAc(b1-3)Gal,-0.289
same,glycan array binding signal (z-score),[3],-0.023
same,glycan array binding signal (z-score),[4],-0.133
same,glycan array binding signal (z-score),[5],-0.038
same,glycan array binding signal (z-score),GalNAc(b1-3)GalNAc,0.143
same,glycan array binding signal (z-score),GalNAc(b1-3)GlcNAc,-0.319
same,glycan array binding signal (z-score),GalNAc(b1-4)Gal(b1-4)Glc,-0.057
same,glycan array binding signal (z-score),GalNAc(b1-4)GlcNAc,0.446
same,glycan array binding signal (z-score),[6],-0.178
same,glycan array binding signal (z-score),[7],-0.176
same,glycan array binding signal (z-score),[8],-0.208
same,glycan array binding signal (z-score),GalNAc(b1-4)GlcNAc6S,-0.205
same,glycan array binding signal (z-score),GalNAc(b1-6)GalNAc,-0.255
same,glycan array binding signal (z-score),GalNAc3S(b1-4)GlcNAc,-0.312
same,glycan array binding signal (z-score),GalNAc3S(b1-4)GlcNAc3S,-0.298
same,glycan array binding signal (z-score),[9],0.095
same,glycan array binding signal (z-score),GalNAc4S6S(b1-4)GlcNAc,-0.292
same,glycan array binding signal (z-score),GalNAc6S(b1-4)GlcNAc,-0.222
same,glycan array binding signal (z-score),Glc(a1-4)Glc,-0.294
same,glycan array binding signal (z-score),[10],-0.105
same,glycan array binding signal (z-score),Glc(a1-6)Glc(a1-6)Glc,-0.212
same,glycan array binding signal (z-score),[11],-0.138
same,glycan array binding signal (z-score),Glc(b1-4)Glc,-0.223
same,glycan array binding signal (z-score),Glc(b1-6)Glc,-0.225
same,glycan array binding signal (z-score),GlcA(b1-3)Gal,-0.159
same,glycan array binding signal (z-score),GlcA(b1-3)GlcNAc,-0.204
same,glycan array binding signal (z-score),GlcA(b1-6)Gal,0.025
same,glycan array binding signal (z-score),[12],-0.279
same,glycan array binding signal (z-score),[13],-0.12
same,glycan array binding signal (z-score),[14],-0.26
same,glycan array binding signal (z-score),[15],-0.098
same,glycan array binding signal (z-score),[16],-0.031
same,glycan array binding signal (z-score),[17],-0.257
same,glycan array binding signal (z-score),[18],-0.192
same,glycan array binding signal (z-score),[19],-0.155
same,glycan array binding signal (z-score),[20],-0.163
same,glycan array binding signal (z-score),[21],0.433
